# Results from the supplement of paper PMC8728848.
# The list shows a part of the results.
# B1: PkBDPgamma (Plasmodium knowlesi) (protein)
# chain: SAINQIFLQNNVMDKCNDKRKRGERDWDCPTEKDVCIPDRRYQLCMMEITNLVDTDTHFHSDIIFRKSYSRRRLIYDVGGRGDLLLKKYNNVYSEDLCKDIKWSLQDFGDIIMGTDMEGIGYSLVVQNNLRSIFGTGTSAELDRKKWWNDHKKDIWKAMILSVKEKNRYSAWNCKEDVQIKVEPQIYRWIREWGRDYMSEFREQRRKLNEKCEDKLYYSTMLICTLPPCNNACKSYDEWITGKKKQWDVLSTKFSSVKKAQKIETENIARAYDILKQELNGFNEVTFENEINKRDKLYNYFCVCIVQEARKNTQENVKNVGSGVESKAPSSNPINEAVKSSSGEGKVQEDSAHRSVNEGEGKSSTNEADPGSQPGAAASGGGSGGGTGGGVDLAPQMLRELQETNAALQDVRELLRQQVKEITFLKNTVMECDACGGPLDRNLPPLAPLGPTGGWSHPQFEK
# Experiments:
# Experiment in all cases: glycan array binding signal (z-score within array); higher = stronger binding
# Details in all cases: glycan notation: IUPAC condensed, linker removed
# [1] = target: GlcNAc(b1-2)[GlcNAc(b1-4)]Man(a1-3)[GlcNAc(b1-4)][GlcNAc(b1-2)Man(a1-6)]Man(b1-4)GlcNAc(b1-4)GlcNAc
# Outline: (§1)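 From the Consortium for Functional Glycomics database, 3228 arrays were curated, keeping only those whose protein sequence was available. Binding is given as a within-array Z-score averaged across arrays sharing a protein sequence and across linkers. Negative Z-scores can be read as non-binding.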
# [2] = target: GlcNAc(b1-2)[GlcNAc(b1-4)]Man(a1-3)[GlcNAc(b1-4)][GlcNAc(b1-2)[GlcNAc(b1-6)]Man(a1-6)]Man(b1-4)GlcNAc(b1-4)GlcNAc
# Outline: as §1
# [3] = target: GlcNAc(b1-2)[GlcNAc(b1-4)]Man(a1-3)[GlcNAc(b1-4)][GlcNAc(b1-2)[GlcNAc(b1-6)]Man(a1-6)]Man(b1-4)GlcNAc(b1-4)[Fuc(a1-6)]GlcNAc
# Outline: as §1
# [4] = target: GlcNAc(b1-2)[GlcNAc(b1-6)]Man(a1-6)[GlcNAc(b1-2)Man(a1-3)]Man(b1-4)GlcNAc(b1-4)GlcNAc
# Outline: as §1
# [5] = target: GlcNAc(b1-2)[GlcNAc(b1-6)]Man(a1-6)[GlcNAc(b1-2)Man(a1-3)]Man(b1-4)GlcNAc(b1-4)[Fuc(a1-6)]GlcNAc
# Outline: as §1
# [6] = target: GlcNAc(b1-2)[GlcNAc(b1-6)]Man(a1-6)[GlcNAc(b1-4)][GlcNAc(b1-2)Man(a1-3)]Man(b1-4)GlcNAc(b1-4)GlcNAc
# Outline: as §1
# [7] = target: GlcNAc(b1-3)Fuc
# Outline: as §1
# [8] = target: GlcNAc(b1-3)Gal
# Outline: as §1
# [9] = target: GlcNAc(b1-3)Gal(b1-3)GalNAc
# Outline: as §1
# [10] = target: GlcNAc(b1-3)Gal(b1-4)Glc
# Outline: as §1
# [11] = target: GlcNAc(b1-3)Gal(b1-4)GlcNAc
# Outline: as §1
# [12] = target: GlcNAc(b1-3)Gal(b1-4)GlcNAc(b1-2)Man(a1-3)[GlcNAc(b1-3)Gal(b1-4)GlcNAc(b1-2)Man(a1-6)]Man(b1-4)GlcNAc(b1-4)GlcNAc
# Outline: as §1
# [13] = target: GlcNAc(b1-3)Gal(b1-4)GlcNAc(b1-2)Man(a1-3)[GlcNAc(b1-3)Gal(b1-4)GlcNAc(b1-2)Man(a1-6)]Man(b1-4)GlcNAc(b1-4)[Fuc(a1-6)]GlcNAc
# Outline: as §1
# [14] = target: GlcNAc(b1-3)Gal(b1-4)GlcNAc(b1-2)[GlcNAc(b1-3)Gal(b1-4)GlcNAc(b1-6)]Man(a1-6)[GlcNAc(b1-3)Gal(b1-4)GlcNAc(b1-2)Man(a1-3)]Man(b1-4)GlcNAc(b1-4)GlcNAc
# Outline: as §1
# [15] = target: GlcNAc(b1-3)Gal(b1-4)GlcNAc(b1-3)Gal(b1-4)GlcNAc
# Outline: as §1
# [16] = target: GlcNAc(b1-3)Gal(b1-4)GlcNAc(b1-3)Gal(b1-4)GlcNAc(b1-2)Man(a1-3)[GlcNAc(b1-3)Gal(b1-4)GlcNAc(b1-3)Gal(b1-4)GlcNAc(b1-2)Man(a1-6)]Man(b1-4)GlcNAc(b1-4)GlcNAc
# Outline: as §1
# [17] = target: GlcNAc(b1-3)Gal(b1-4)GlcNAc(b1-3)Gal(b1-4)GlcNAc(b1-2)Man(a1-3)[GlcNAc(b1-3)Gal(b1-4)GlcNAc(b1-3)Gal(b1-4)GlcNAc(b1-2)Man(a1-6)]Man(b1-4)GlcNAc(b1-4)[Fuc(a1-6)]GlcNAc
# Outline: as §1
# [18] = target: GlcNAc(b1-3)Gal(b1-4)GlcNAc(b1-3)Gal(b1-4)GlcNAc(b1-2)[GlcNAc(b1-3)Gal(b1-4)GlcNAc(b1-3)Gal(b1-4)GlcNAc(b1-6)]Man(a1-6)[GlcNAc(b1-3)Gal(b1-4)GlcNAc(b1-3)Gal(b1-4)GlcNAc(b1-2)Man(a1-3)]Man(b1-4)GlcNAc(b1-4)[Fuc(a1-6)]GlcNAc
# Outline: as §1
# [19] = target: GlcNAc(b1-3)Gal(b1-4)GlcNAc(b1-3)Gal(b1-4)GlcNAc(b1-3)Gal(b1-4)GlcNAc(b1-2)Man(a1-3)[GlcNAc(b1-3)Gal(b1-4)GlcNAc(b1-3)Gal(b1-4)GlcNAc(b1-3)Gal(b1-4)GlcNAc(b1-2)Man(a1-6)]Man(b1-4)GlcNAc(b1-4)GlcNAc
# Outline: as §1
# [20] = target: GlcNAc(b1-3)Gal(b1-4)GlcNAc(b1-3)Gal(b1-4)GlcNAc(b1-3)Gal(b1-4)GlcNAc(b1-2)Man(a1-3)[GlcNAc(b1-3)Gal(b1-4)GlcNAc(b1-3)Gal(b1-4)GlcNAc(b1-3)Gal(b1-4)GlcNAc(b1-2)Man(a1-6)]Man(b1-4)GlcNAc(b1-4)[Fuc(a1-6)]GlcNAc
# Outline: as §1
# [21] = target: GlcNAc(b1-3)Gal(b1-4)GlcNAc(b1-3)Gal(b1-4)GlcNAc(b1-3)Gal(b1-4)GlcNAc(b1-2)[GlcNAc(b1-3)Gal(b1-4)GlcNAc(b1-3)Gal(b1-4)GlcNAc(b1-3)Gal(b1-4)GlcNAc(b1-6)]Man(a1-6)[GlcNAc(b1-3)Gal(b1-4)GlcNAc(b1-3)Gal(b1-4)GlcNAc(b1-3)Gal(b1-4)GlcNAc(b1-2)Man(a1-3)]Man(b1-4)GlcNAc(b1-4)[Fuc(a1-6)]GlcNAc
# Outline: as §1
# [22] = target: GlcNAc(b1-3)Gal(b1-4)GlcNAc(b1-3)Gal(b1-4)GlcNAc(b1-3)Gal(b1-4)GlcNAc(b1-3)Gal(b1-4)GlcNAc(b1-2)Man(a1-3)[GlcNAc(b1-3)Gal(b1-4)GlcNAc(b1-3)Gal(b1-4)GlcNAc(b1-3)Gal(b1-4)GlcNAc(b1-3)Gal(b1-4)GlcNAc(b1-2)Man(a1-6)]Man(b1-4)GlcNAc(b1-4)GlcNAc
# Outline: as §1
# [23] = target: GlcNAc(b1-3)Gal(b1-4)GlcNAc(b1-3)Gal(b1-4)GlcNAc(b1-3)Gal(b1-4)GlcNAc(b1-3)Gal(b1-4)GlcNAc(b1-2)Man(a1-3)[GlcNAc(b1-3)Gal(b1-4)GlcNAc(b1-3)Gal(b1-4)GlcNAc(b1-3)Gal(b1-4)GlcNAc(b1-3)Gal(b1-4)GlcNAc(b1-2)Man(a1-6)]Man(b1-4)GlcNAc(b1-4)[Fuc(a1-6)]GlcNAc
# Outline: as §1
# [24] = target: GlcNAc(b1-3)Gal(b1-4)GlcNAc(b1-3)Gal(b1-4)GlcNAc(b1-3)Gal(b1-4)GlcNAc(b1-3)Gal(b1-4)GlcNAc(b1-2)[GlcNAc(b1-3)Gal(b1-4)GlcNAc(b1-3)Gal(b1-4)GlcNAc(b1-3)Gal(b1-4)GlcNAc(b1-3)Gal(b1-4)GlcNAc(b1-6)]Man(a1-6)[GlcNAc(b1-3)Gal(b1-4)GlcNAc(b1-3)Gal(b1-4)GlcNAc(b1-3)Gal(b1-4)GlcNAc(b1-3)Gal(b1-4)GlcNAc(b1-2)Man(a1-3)]Man(b1-4)GlcNAc(b1-4)[Fuc(a1-6)]GlcNAc
# Outline: as §1
# [25] = target: GlcNAc(b1-3)Gal(b1-4)GlcNAc(b1-3)Gal(b1-4)GlcNAc(b1-3)GalNAc
# Outline: as §1
# [26] = target: GlcNAc(b1-3)Gal(b1-4)GlcNAc(b1-3)GalNAc
# Outline: as §1
# [27] = target: GlcNAc(b1-3)Gal(b1-4)GlcNAc(b1-3)[GlcNAc(b1-3)Gal(b1-4)GlcNAc(b1-3)]GalNAc
# Outline: as §1
# [28] = target: GlcNAc(b1-3)Gal(b1-4)GlcNAc(b1-6)[Gal(b1-3)]GalNAc
# Outline: as §1
# [29] = target: GlcNAc(b1-3)Gal(b1-4)GlcNAc(b1-6)[GlcNAc(b1-3)Gal(b1-3)]GalNAc
# Outline: as §1
# [30] = target: GlcNAc(b1-3)Gal(b1-4)GlcNAc(b1-6)[GlcNAc(b1-3)]Gal(b1-4)GlcNAc
# Outline: as §1
# [31] = target: GlcNAc(b1-3)GalNAc
# Outline: as §1
# [32] = target: GlcNAc(b1-3)Man
# Outline: as §1
# [33] = target: GlcNAc(b1-3)[GlcNAc(b1-4)][GlcNAc(b1-6)]GlcNAc
# Outline: as §1
# [34] = target: GlcNAc(b1-3)[GlcNAc(b1-6)]Gal(b1-4)GlcNAc
# Outline: as §1
# [35] = target: GlcNAc(b1-3)[GlcNAc(b1-6)]GalNAc
# Outline: as §1
# [36] = target: GlcNAc(b1-4)Gal(b1-4)GlcNAc
# Outline: as §1
# [37] = target: GlcNAc(b1-4)GlcNAc
# Outline: as §1
# [38] = target: GlcNAc(b1-4)GlcNAc(b1-4)GlcNAc
# Outline: as §1
binder,measurement,setting,value
B1,glycan array binding signal (z-score),[1],0.338
same,glycan array binding signal (z-score),[2],-0.395
same,glycan array binding signal (z-score),[3],-0.236
same,glycan array binding signal (z-score),[4],0.138
same,glycan array binding signal (z-score),[5],0.185
same,glycan array binding signal (z-score),[6],0.107
same,glycan array binding signal (z-score),[7],0.497
same,glycan array binding signal (z-score),[8],0.201
same,glycan array binding signal (z-score),[9],-0.239
same,glycan array binding signal (z-score),[10],0.064
same,glycan array binding signal (z-score),[11],-0.259
same,glycan array binding signal (z-score),[12],0.013
same,glycan array binding signal (z-score),[13],0.242
same,glycan array binding signal (z-score),[14],0.325
same,glycan array binding signal (z-score),[15],-0.185
same,glycan array binding signal (z-score),[16],-0.087
same,glycan array binding signal (z-score),[17],0.811
same,glycan array binding signal (z-score),[18],0.014
same,glycan array binding signal (z-score),[19],0.518
same,glycan array binding signal (z-score),[20],0.128
same,glycan array binding signal (z-score),[21],-0.196
same,glycan array binding signal (z-score),[22],0.208
same,glycan array binding signal (z-score),[23],-0.009
same,glycan array binding signal (z-score),[24],2.27
same,glycan array binding signal (z-score),[25],-0.202
same,glycan array binding signal (z-score),[26],-0.025
same,glycan array binding signal (z-score),[27],0.295
same,glycan array binding signal (z-score),[28],0.103
same,glycan array binding signal (z-score),[29],0.068
same,glycan array binding signal (z-score),[30],-0.12
same,glycan array binding signal (z-score),[31],-0.356
same,glycan array binding signal (z-score),[32],-0.084
same,glycan array binding signal (z-score),[33],-0.697
same,glycan array binding signal (z-score),[34],-0.061
same,glycan array binding signal (z-score),[35],-0.331
same,glycan array binding signal (z-score),[36],-0.134
same,glycan array binding signal (z-score),[37],0.577
same,glycan array binding signal (z-score),[38],-0.565
